Laboratory results: PubChem BioAssay AID624417 (National Center for Advancing Translational Sciences (NCATS), 2012)
The whole screen tested about 410,000 compounds, of which about 6,400 (1.6%) were called active. The shares of active, inactive and inconclusive entries below differ from those in the screen. The call rests on the fitted dose curve; in most records, active means well fitted inhibition curve with a large enough effect; inconclusive means small, poorly fitted or top-dose-only effect; inactive means no such curve, though single readings can be large or run the other way. Potencies of inconclusive entries are left out as doubtful fits.

Target: Glucagon-like peptide 1 receptor (Homo sapiens) (UniProt P43220)
Experiment: qHTS of GLP-1 Receptor Inverse Agonists (Inhibition Mode); further: nearly all actives have a fitted effect of over 55% in size
Conditions: HEK293 GLP-1R CRE-luciferase, luminescence, 24 h, GLP-1R form is constitutively active; series mostly up to 38.3 µM
Outline: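 Inverse agonists were sought by their lowering of basal cAMP reporter luciferase output in HEK293 cells stably carrying constitutively active human GLP-1R, after 24 h compound treatment.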
Potency means the concentration at half of the fitted maximal effect; tags describe the fitted curve by direction and shape.

Sequence of UniProt P43220 (P43220 whole entry, looked up): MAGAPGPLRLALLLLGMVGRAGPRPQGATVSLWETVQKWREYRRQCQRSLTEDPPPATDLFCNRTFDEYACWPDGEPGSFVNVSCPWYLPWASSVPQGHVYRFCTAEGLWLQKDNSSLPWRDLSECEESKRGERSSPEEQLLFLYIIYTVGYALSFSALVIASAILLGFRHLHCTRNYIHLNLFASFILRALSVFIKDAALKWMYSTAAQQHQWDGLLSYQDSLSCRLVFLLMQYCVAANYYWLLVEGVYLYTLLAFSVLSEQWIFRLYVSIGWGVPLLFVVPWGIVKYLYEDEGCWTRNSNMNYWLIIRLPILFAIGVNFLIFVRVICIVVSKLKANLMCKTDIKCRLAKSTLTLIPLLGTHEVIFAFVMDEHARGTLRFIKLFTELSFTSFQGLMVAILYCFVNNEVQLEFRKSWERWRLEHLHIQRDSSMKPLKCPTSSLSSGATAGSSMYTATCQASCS

Row | SMILES | Potency
1 | CCCSC1=NN2CCCC(=O)N=C2S1 | inactive
2 | CC1CCCCC12NC(=O)N(CC(=O)OCc1ccccc1F)C2=O (stereo not given) | inconclusive [inhibitor, partial curve, poor fit]
3 | COc1cccc(C2=CC(=O)C[C@H](c3ccc(Cl)cc3)C2)c1OC | inconclusive [inhibitor, single point]
4 | CC1(C(=O)NCCc2c[nH]c3ccccc23)CCN1Cc1ccccc1OC(F)F (stereo not given) | inconclusive [inhibitor, full curve]
5 | COc1ccc(CCNC(=O)c2nc(SCc3ccccc3F)ncc2Cl)cc1OC | inconclusive [inhibitor, single point]
6 | CN1CCN(C(=O)C2=C[C@@H](c3ccc(C(F)(F)F)cc3)C[C@@H](OCc3ccc(CO)cc3)O2)CC1 | inconclusive [inhibitor, single point]
7 | OC[C@@H]1CN(Cc2ccc(F)cc2)C[C@H](n2cnc3c(N4CCN(c5ccccc5)CC4)ncnc32)O1 | inconclusive [inhibitor, single point]
8 | CCc1ccc(-c2nc(SCC(=O)NCC3CCCO3)c(-c3ccc(C)cc3)[nH]2)cc1 (stereo not given) | inactive
9 | O=C(Nc1ccc2c(c1)OCCO2)c1ccc(Br)c(S(=O)(=O)N2CCOCC2)c1 | inconclusive [inhibitor, partial curve, poor fit]
10 | FC(F)(F)c1ccc(CSc2nccn2-c2ccccc2)cc1 | inconclusive [inhibitor, partial curve, poor fit]
11 | CCCN(C(=O)Cn1ncc2c1-c1ccccc1OC2)c1cccc(C)c1 | inconclusive [inhibitor, partial curve, poor fit]
12 | C[n+]1cc[nH]c1SCC(=O)c1ccccc1 | inactive
13 | Cc1ccc(C(=O)Oc2ccc(Cl)c3cccnc23)cc1[N+](=O)[O-] | inconclusive [inhibitor, full curve, poor fit]
14 | CCN(CC)C(=O)[C@H]1C[C@H](CC(=O)NCCCN(C)C)C(=O)N2CCc3c([nH]c4ccc(Cl)cc34)[C@]12C | inconclusive [inhibitor, single point]
15 | OCCC1CN(Cc2cnc(-c3ccccc3)s2)CCN1CCc1ccccc1 (stereo not given) | inconclusive [inhibitor, partial curve]
16 | CCCCCn1c(=O)[nH]c2cc(C(=O)NCCN3CCCCC3C)ccc2c1=O (stereo not given) | inconclusive [inhibitor, partial curve, poor fit]
17 | CSc1nsc(/C=C/Nc2ccc(C)cc2)c1C#N | inconclusive [inhibitor, single point]
18 | Cc1cccc(NC(=O)CCN2CCN(c3ccccc3F)CC2)c1 | inactive
19 | C[C@H](c1ccccc1)N1C[C@@H](COCc2ccccc2)Oc2cc(N3CCC[C@H]3CO)ccc2S1(=O)=O | inconclusive [inhibitor, single point]
20 | O=C(Cc1ccc2c(c1)OCCO2)Nc1cc(C(F)(F)F)ccc1N1CCOCC1 | inconclusive [inhibitor, single point]

Row | SMILES | Potency
21 | CN(C)C(CNC(=O)c1ccc(S(=O)(=O)Nc2ccccc2)cc1)c1ccco1 (stereo not given) | inconclusive [inhibitor, single point]
22 | O=C(Nc1ccc(Cl)c(Cl)c1)OCCNC(=O)c1cccc(Cl)c1 | inconclusive [inhibitor, partial curve, poor fit]
23 | O=C(Nc1ncccn1)c1cc(-c2cccc(Br)c2)nc2ccccc12 | inconclusive [inhibitor, partial curve]
24 | COc1ccc(CCNC(=O)Cn2cnc3sc(C)c(-c4ccc(F)cc4)c3c2=O)cc1OC | inconclusive [inhibitor, partial curve]
25 | O=C(c1cccc(C(F)(F)F)c1)C1CCCN(Cc2ccc(OCCO)cc2)C1 (stereo not given) | inconclusive [inhibitor, single point]
26 | c1csc(-c2csc3nc(CN4CCOCC4)nc(NCc4ccc5c(c4)OCO5)c23)c1 | inconclusive [inhibitor, partial curve, poor fit]
27 | CCOC(=O)c1cnc(SC)nc1Sc1ccccc1Cl | inconclusive [inhibitor, partial curve, poor fit]
28 | COc1ccc(-c2cn3nc(N4CCCC(C(=O)Nc5ccccc5OC)C4)sc3n2)cc1 (stereo not given) | inconclusive [inhibitor, single point]
29 | COC(=O)C1=C(C)NC(=S)NC1c1ccc(OC(=O)c2ccco2)cc1 (stereo not given) | inactive
30 | COc1ccc(N2CCN(C(C)C(=O)N3CCc4ccccc43)CC2)cc1 (stereo not given) | inconclusive [inhibitor, single point]
31 | Cc1ccccc1C(=O)NNC(=O)/C=C\C(=O)O | inconclusive [inhibitor, single point]
32 | CCn1cc2nc(SCC(=O)Nc3ccccc3F)n(Cc3ccccc3)c(=O)c2n1 | inconclusive [inhibitor, single point]
33 | CCOc1ccccc1-c1cncc(NC)n1 | inactive
34 | Cc1c(C(=O)Nc2ccc(Nc3ccccc3)cc2)cccc1[N+](=O)[O-] | inconclusive [inhibitor, full curve, poor fit]
35 | CCn1c2ccccc2nc2cc3c(cc21)c(Cl)c(=O)c1ccccc13 | inconclusive [inhibitor, single point]
36 | C[C@]12c3[nH]c4ccc(Cl)cc4c3CCN1C(=O)[C@@H](CC(=O)NCc1cccc(C(F)(F)F)c1)C[C@@H]2C(=O)N1CCCCC1 | inconclusive [inhibitor, single point]
37 | CCC(=O)c1ccc(OCc2ccc(C(=O)c3ccccc3)cc2)cc1 | active: 10 µM
38 | C(=C\c1nc(-c2cccnc2)no1)/c1ccccc1 | inactive
39 | C1CC2CN(c3nc4nonc4nc3N3CCSCC3)CCN2C1 (stereo not given) | inconclusive [inhibitor, full curve, poor fit]
40 | S=C1NCN(Cc2ccco2)CN1c1ccccc1 | inactive
